# In the supplement of paper PMC3334620:
# Whole data set: some 33,000 sequences, median “E-score (-0.5 to 0.5)” near -0.053, cut for the highest 2% near 0.37. The list shows a part of the results.
# Biological target: Hap1 (UniProt P0CE41)
# Assay: PBM E-score (8-mer binding enrichment) (E-score (-0.5 to 0.5)); higher = stronger / more preferred TF binding; most listed sequences are background and not binding sites
# Conditions: protein concentration: 200 nM; construct: GST-DNA-binding domain
# Summary of the method: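 Yeast transcription factors, full-length or as DNA-binding domains, were expressed with a GST tag using PURExpress in vitro transcription/translation. At about 100-200 nM they were applied to universal all-10-mer Agilent arrays, double-stranded by primer extension on fresh or once-stripped slides. Fluorescent anti-GST detected bound protein, and masliner normalised the scans. E-scores for ungapped eight-base words, pooled with reverse complements, came from the Universal PBM Analysis Suite.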
# Sequence of UniProt P0CE41 (P0CE41 whole entry): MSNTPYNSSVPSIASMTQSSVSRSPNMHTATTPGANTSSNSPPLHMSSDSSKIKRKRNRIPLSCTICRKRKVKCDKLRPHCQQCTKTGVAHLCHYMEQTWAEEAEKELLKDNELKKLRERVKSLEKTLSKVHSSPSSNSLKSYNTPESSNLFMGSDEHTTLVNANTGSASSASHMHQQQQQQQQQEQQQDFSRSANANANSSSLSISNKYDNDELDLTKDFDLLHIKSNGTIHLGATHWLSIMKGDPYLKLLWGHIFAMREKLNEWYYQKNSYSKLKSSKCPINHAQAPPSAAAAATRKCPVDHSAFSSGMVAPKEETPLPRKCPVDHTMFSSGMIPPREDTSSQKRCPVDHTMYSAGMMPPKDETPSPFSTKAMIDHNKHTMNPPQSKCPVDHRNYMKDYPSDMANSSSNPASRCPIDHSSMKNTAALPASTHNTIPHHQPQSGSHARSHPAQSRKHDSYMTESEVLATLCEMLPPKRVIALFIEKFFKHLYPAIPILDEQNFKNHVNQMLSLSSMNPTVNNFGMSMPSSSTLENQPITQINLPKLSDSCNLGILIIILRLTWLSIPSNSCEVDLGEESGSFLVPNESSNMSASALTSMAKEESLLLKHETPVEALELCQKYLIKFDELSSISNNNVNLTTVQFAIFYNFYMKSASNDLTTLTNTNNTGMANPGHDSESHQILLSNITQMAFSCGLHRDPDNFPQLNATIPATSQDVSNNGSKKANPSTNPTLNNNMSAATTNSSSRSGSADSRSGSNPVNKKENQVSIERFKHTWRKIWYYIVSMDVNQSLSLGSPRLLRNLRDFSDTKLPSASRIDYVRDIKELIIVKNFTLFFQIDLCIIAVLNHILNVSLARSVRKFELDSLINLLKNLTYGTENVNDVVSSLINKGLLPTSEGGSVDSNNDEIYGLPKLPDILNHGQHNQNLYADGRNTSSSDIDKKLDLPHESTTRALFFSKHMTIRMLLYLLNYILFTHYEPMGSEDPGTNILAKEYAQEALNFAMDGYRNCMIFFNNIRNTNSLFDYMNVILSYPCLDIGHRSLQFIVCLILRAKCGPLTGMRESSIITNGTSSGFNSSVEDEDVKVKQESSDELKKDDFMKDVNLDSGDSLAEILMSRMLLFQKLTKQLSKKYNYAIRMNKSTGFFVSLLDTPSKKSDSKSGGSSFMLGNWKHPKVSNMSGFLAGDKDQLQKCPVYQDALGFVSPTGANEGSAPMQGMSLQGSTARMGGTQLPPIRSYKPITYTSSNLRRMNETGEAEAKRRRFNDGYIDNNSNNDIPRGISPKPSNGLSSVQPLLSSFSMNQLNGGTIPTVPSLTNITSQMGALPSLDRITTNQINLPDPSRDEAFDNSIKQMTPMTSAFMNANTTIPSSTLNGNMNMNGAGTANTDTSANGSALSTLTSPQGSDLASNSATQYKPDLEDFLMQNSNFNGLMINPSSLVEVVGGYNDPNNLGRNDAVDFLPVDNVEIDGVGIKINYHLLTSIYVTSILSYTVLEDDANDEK
row,Sequence,PBM E-score
1,CCGCCGTA,0.329
2,CTGTGACC,-0.0925
3,GCGCCTAC,0.0211
4,AGAAGGCG,-0.231
5,CTGGATCC,0.234
6,GGGTGGGA,0.0589
7,AATACGGT,-0.015
8,GAACTCTC,0.0148
9,GATCCTTA,-0.272
10,GCGCCGAA,0.359
11,CATGATCC,0.0708
12,ACCCAGCC,-0.249
13,GGCGGTCA,0.183
14,TAGTTAAA,0.00327
15,CCTACCTA,-0.201
16,AAAGCCGA,0.426
17,CAGAGCCC,-0.172
18,CCGTGGGA,-0.0827
19,CGTCGTAG,0.0884
20,CGAGCGAA,0.196
21,TTGCCCAA,-0.138
22,GTCGAGAC,-0.0569
23,GGCGAGAA,0.182
24,CCTTGACC,0.06
25,AGTCCGTG,0.299

row,Sequence,PBM E-score
1,CTGAACTA,-0.0914
2,AACTCATG,-0.219
3,GAGGGTCC,0.0576
4,AATTGCAG,-0.0487
5,ACGGCACG,0.0179
6,TACTCACA,-0.221
7,CGTATGTA,0.0209
8,ATTGATAC,0.091
9,CACATAAA,-0.107
10,GGTGTGAC,-0.0815
11,CAACACTC,0.0258
12,CGCCCATA,0.0299
13,TAGTCAGA,-0.275
14,GCCGTGTA,-0.00583
15,GCCGACCC,0.139
16,ACTGTTGC,-0.00311
17,AGCTAAGA,-0.0182
18,GAGTCAAA,-0.0999
19,ACGTCATC,-0.092
20,CATTCTCG,0.00612
21,CCATGGGC,0.0325
22,CCCCGCAC,0.138
23,AATGTAAC,0.0419
24,AGCAAATC,-0.0751
25,GGAGAGGA,-0.136

row,Sequence,PBM E-score
1,AGGGTCAC,-0.193
2,CCAATCCG,0.284
3,GAGGGTTA,-0.232
4,TAAATGTA,-0.193
5,CTCGAAGA,-0.152
6,ATCTAGAC,-0.221
7,GTCTGAGA,-0.168
8,GACTTCCA,-0.115
9,CATCTCAA,-0.286
10,AAATCTCA,-0.172
11,TGACCGCA,0.109
12,CAGAATAC,-0.00685
13,CGCTCAGC,-0.031
14,CGAGTGAA,-0.0112
15,GAAATGTA,0.168
16,CGTCTGCA,-0.287
17,AGATGTTA,-0.252
18,TGAATTCA,-0.171
19,AAAAAGTT,-0.168
20,GGACATCA,0.132
21,CAGATACG,0.0074
22,AAACGCCT,-0.114
23,AGATATGA,-0.0245
24,CCACGTCA,-0.178
25,GATCGTGA,-0.0824

row,Sequence,PBM E-score
1,ACCGGCTA,0.152
2,GGAAGCGA,0.0691
3,GCTTGACC,-0.0496
4,AAGGATAA,-0.214
5,AAAGGAGA,-0.212
6,AGAAACGC,-0.00268
7,ATGTCCGG,0.468
8,GGCAGGTA,0.0138
9,CCAAGGTA,-0.102
10,AAAGACTC,-0.227
11,ATATTAGA,0.0389
12,GTGTTAAA,-0.159
13,CCATGCCG,0.205
14,AAGGACAG,-0.182
15,GTTAGGTA,-0.0541
16,ATATCGTA,0.11
17,CTGCGAAC,-0.346
18,AGATATAC,-0.00052
19,AATGGAGG,-0.111
20,GCGACGGA,0.258
21,ACAGGAGG,-0.266
22,ATAGAGCC,0.145
23,GTAGTAAA,0.00051
24,ACAACTAC,-0.0374
25,GTCTTCAC,0.0812

row,Sequence,PBM E-score
1,GGGGCCTA,-0.108
2,CTATCAAG,-0.22
3,GTCTTCCA,-0.182
4,ACATAATG,-0.00364
5,ACGATAAT,-0.113
6,ATAATTAC,0.0865
7,ATCCGCAG,0.208
8,CGCTATAG,-0.158
9,GCACGTAA,-0.0538
10,CTGTGGTC,-0.0274
11,AGCATTAA,-0.00248
12,ACGCGCGC,0.151
13,AAACCCCA,-0.134
14,CTATCAGA,-0.0878
15,ACCTCTAA,-0.0123
16,AGGCTGGG,-0.224
17,CGATATTC,0.345
18,AATACATG,-0.0503
19,ACGACCAG,-0.184
20,TGTATTAA,-0.0725
21,ATAGACTG,-0.195
22,CGAAACTC,0.177
23,CCGGAACG,0.328
24,AAGGATCT,-0.233
25,AGCAGGAA,-0.246

row,Sequence,PBM E-score
1,CTGTGATA,-0.103
2,ATCCGAAT,0.403
3,CGTCGTCA,-0.126
4,TCGAACCA,-0.245
5,GCAAGAGA,-0.172
6,GGCGGTTA,0.0801
7,GCTCGTAC,-0.157
8,ACCGATTC,0.0838
9,CATCTGAA,-0.0756
10,GAATCATC,-0.0109
11,AGTCAGGC,-0.0868
12,GATTCCAA,-0.0456
13,GCGTGCCA,-0.045
14,ATACTATC,0.123
15,CCCAGGAC,-0.126
16,CGTGTAAG,-0.0208
17,TATGACCA,-0.0134
18,AATACTAC,-0.0997
19,AGTAGACG,-0.202
20,ACGCTATC,-0.0612
21,GAAGTGTA,-0.159
22,CCTCCGTC,0.113
23,AACTGGAG,-0.157
24,AGGTCTGC,-0.246
25,ATAGAAAC,-0.161

row,Sequence,PBM E-score
1,AACGTATC,-0.00505
2,CCGGTACC,0.338
3,GTAAGGAC,0.176
4,GTAACGGA,0.401
5,AAGAGCTT,-0.107
6,GTTTAAAC,0.307
7,ACAGGACG,-0.0975
8,AGGTTGAG,-0.275
9,TGTCCGAA,0.412
10,ATAATGAC,-0.0457
11,CTGCGCCA,-0.103
12,AACTTCGC,0.0459
13,ACAGGAGC,-0.174
14,CTGTTTTC,-0.131
15,AACCTCTA,0.0467
16,GTGCGGTA,0.214
17,CCAGCAGG,-0.231
18,CTTACTCA,-0.148
19,AGCTCAAT,-0.0666
20,AGTAGAGC,-0.345
21,GGCTCCAA,0.0341
22,AGAGTGGC,-0.0593
